For assay [1], the target named is T1, recombinant human Ang2 (Biolegend) (human, UniProt O15123 19-496).
T1 chain: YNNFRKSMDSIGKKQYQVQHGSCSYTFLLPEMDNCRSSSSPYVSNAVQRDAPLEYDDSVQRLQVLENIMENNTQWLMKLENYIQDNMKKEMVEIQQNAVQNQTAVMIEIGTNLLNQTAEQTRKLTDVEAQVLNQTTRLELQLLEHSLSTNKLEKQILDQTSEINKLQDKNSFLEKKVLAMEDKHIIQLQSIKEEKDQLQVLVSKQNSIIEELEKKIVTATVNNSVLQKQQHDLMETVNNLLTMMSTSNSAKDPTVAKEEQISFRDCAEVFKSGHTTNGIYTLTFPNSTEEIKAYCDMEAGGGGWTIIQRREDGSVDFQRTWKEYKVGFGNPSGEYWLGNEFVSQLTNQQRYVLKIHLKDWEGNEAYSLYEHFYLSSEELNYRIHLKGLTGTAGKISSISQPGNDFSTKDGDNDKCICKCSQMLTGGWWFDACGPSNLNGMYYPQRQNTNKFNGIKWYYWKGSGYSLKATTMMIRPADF
The assay is described as follows: Ang2-Tie2 blocking ELISA; Test 3.

Assay [2] addresses T1, recombinant human Ang2 (Biolegend). As to the kind of experiment: Ang2-Tie2 blocking ELISA; Test 1. In general terms: An ELISA detects its analyte on a solid surface through an enzyme-linked reagent.
For assay [3] the target is unchanged. The assay is described as follows: Ang2-Tie2 blocking ELISA; Test 2.

The source of these data is patent US20220389120A1 (published 2022).

B1: ZA2-d (Fc fusion)
chain: SDTGRPFVEMYSEIPEIIHMTEGRELVIPCRVTSPNITVTLKKFPLDTLIPDGKRIIWDSRKGFIISNATYKEIGLLTCEATVNGHLYKTNYLTHRQTNTIIDVVLSPSHGIELSVGEKLVLNCTARTELNVGIDFNWEYPSSKHQHKKLVNRDLKTQSGSEMKKFLSTLTIDGVTRSDQGLYTCAASSGLMTKKNSTFVRVHEK[sequence of human IgG4 Fc with S228P (EU numbers) omitted]GGGGGAQTNFMPMDDLEQRLYEQFILQQGGGGSGGGGSGGGGSGGGGSTNFMPMDDLEQRLYEQFILQQGLE
For orientation: IC50 means the concentration at which inhibition is half-maximal. Consider B1, for which the values for the IC50 in assay [1] and in assay [2] were 40 pM and 190 pM, respectively.

B2: ZA2-s (protein)
chain: SDTGRPFVEMYSEIPEIIHMTEGRELVIPCRVTSPNITVTLKKFPLDTLIPDGKRIIWDSRKGFIISNATYKEIGLLTCEATVNGHLYKTNYLTHRQTNTIIDVVLSPSHGIELSVGEKLVLNCTARTELNVGIDFNWEYPSSKHQHKKLVNRDLKTQSGSEMKKFLSTLTIDGVTRSDQGLYTCAASSGLMTKKNSTFVRVHEK[sequence of human IgG4 Fc with S228P (EU numbers) omitted]GGGGGAQTNFMPMDDLEQRLYEQFILQQGLE
As to B2, the values for the IC50 in assay [3] and in assay [2] were 710 pM and 640 pM, respectively.
